No constants are given. Whether binding was seen depends on the method and setting. In cells and extracts the contact can be indirect. Some entries that bind do so weakly or less than the wild type.
B1: Venus(N)·OSBP (protein, UniProt P22059 1-807)
chain: MAATELRGVVGPGPAAIAALGGGGAGPPVVGGGGGRGDAGPGSGAASGTVVAAAAGGPGPGAGGVAAAGPAPAPPTGGSGGSGAGGSGSAREGWLFKWTNYIKGYQRRWFVLSNGLLSYYRSKAEMRHTCRGTINLATANITVEDSCNFIISNGGAQTYHLKASSEVERQRWVTALELAKAKAVKMLAESDESGDEESVSQTDKTELQNTLRTLSSKVEDLSTCNDLIAKHGTALQRSLSELESLKLPAESNEKIKQVNERATLFRITSNAMINACRDFLMLAQTHSKKWQKSLQYERDQRIRLEETLEQLAKQHNHLERAFRGATVLPANTPGNVGSGKDQCCSGKGDMSDEDDENEFFDAPEIITMPENLGHKRTGSNISGASSDISLDEQYKHQLEETKKEKRTRIPYKPNYSLNLWSIMKNCIGKELSKIPMPVNFNEPLSMLQRLTEDLEYHELLDRAAKCENSLEQLCYVAAFTVSSYSTTVFRTSKPFNPLLGETFELDRLEENGYRSLCEQVSHHPPAAAHHAESKNGWTLRQEIKITSKFRGKYLSIMPLGTIHCIFHATGHHYTWKKVTTTVHNIIVGKLWIDQSGEIDIVNHKTGDKCNLKFVPYSYFSRDVARKVTGEVTDPSGKVHFALLGTWDEKMECFKVQPVIGENGGDARQRGHEAEESRVMLWKRNPLPKNAENMYYFSELALTLNAWESGTAPTDSRLRPDQRLMENGRWDEANAEKQRLEEKQRLSRKKREAEAMKATEDGTPYDPYKALWFERKKDPVTKELTHIYRGEYWECKEKQDWSSCPDIF
B2: Venus(N)·ORP4L (protein, UniProt Q969R2 1-916)
chain: MGKAAAPSRGGGCGGRSRGLSSLFTVVPCLSCHTAAPGMSASTSGSGPEPKPQPQPVPEPERGPLSEQVSEAVSEAVPRSEPVSETTSEPEPGAGQPSELLQGSRPGSESSSGVGAGPFTKAASEPLSRAVGSATFLRPESGSLPALKPLPLLRPGQAKTPLGVPMSGTGTTSSAPLALLPLDSFEGWLLKWTNYLKGYQRRWFVLGNGLLSYYRNQGEMAHTCRGTINLSTAHIDTEDSCGILLTSGARSYHLKASSEVDRQQWITALELAKAKAVRVMNTHSDDSGDDDEATTPADKSELHHTLKNLSLKLDDLSTCNDLIAKHGAALQRSLTELDGLKIPSESGEKLKVVNERATLFRITSNAMINACRDFLELAEIHSRKWQRALQYEQEQRVHLEETIEQLAKQHNSLERAFHSAPGRPANPSKSFIEGSLLTPKGEDSEEDEDTEYFDAMEDSTSFITVITEAKEDSRKAEGSTGTSSVDWSSADNVLDGASLVPKGSSKVKRRVRIPNKPNYSLNLWSIMKNCIGRELSRIPMPVNFNEPLSMLQRLTEDLEYHHLLDKAVHCTSSVEQMCLVAAFSVSSYSTTVHRIAKPFNPMLGETFELDRLDDMGLRSLCEQVSHHPPSAAHYVFSKHGWSLWQEITISSKFRGKYISIMPLGAIHLEFQASGNHYVWRKSTSTVHNIIVGKLWIDQSGDIEIVNHKTNDRCQLKFLPYSYFSKEAARKVTGVVSDSQGKAHYVLSGSWDEQMECSKVMHSSPSSPSSDGKQKTVYQTLSAKLLWKKYPLPENAENMYYFSELALTLNEHEEGVAPTDSRLRPDQRLMEKGRWDEANTEKQRLEEKQRLSRRRRLEACGPGSSCSSEEEKEADAYTPLWFEKRLDPLTGEMACVYKGGYWEAKEKQDWHMCPNIF
B3: Venus(N)·ORP1L (protein, UniProt Q9BXW6-1 1-950)
chain: MNTEAEQQLLHHARNGNAEEVRQLLETMARNEVIADINCKGRSKSNLGWTPLHLACYFGHRQVVQDLLKAGAEVNVLNDMGDTPLHRAAFTGRKELVMLLLEYNADTTIVNGSGQTAKEVTHAEEIRSMLEAVERTQQRKLEELLLAAAREGKTTELTALLNRPNPPDVNCSDQLGNTPLHCAAYRAHKQCALKLLRSGADPNLKNKNDQKPLDLAQGAEMKHILVGNKVIYKALKRYEGPLWKSSRFFGWRLFWVVLEHGVLSWYRKQPDAVHNIYRQGCKHLTQAVCTVKSTDSCLFFIKCFDDTIHGFRVPKNSLQQSREDWLEAIEEHSAYSTHYCSQDQLTDEEEEDTVSAADLKKSLEKAQSCQQRLDREISNFLKMIKECDMAKEMLPSFLQKVEVVSEASRETCVALTDCLNLFTKQEGVRNFKLEQEQEKNKILSEALETLATEHHELEQSLVKGSPPASILSEDEFYDALSDSESERSLSRLEAVTARSFEEEGEHLGSRKHRMSEEKDCGGGDALSNGIKKHRTSLPSPMFSRNDFSIWSILRKCIGMELSKITMPVIFNEPLSFLQRLTEYMEHTYLIHKASSLSDPVERMQCVAAFAVSAVASQWERTGKPFNPLLGETYELVRDDLGFRLISEQVSHHPPISAFHAEGLNNDFIFHGSIYPKLKFWGKSVEAEPKGTITLELLEHNEAYTWTNPTCCVHNIIVGKLWIEQYGNVEIINHKTGDKCVLNFKPCGLFGKELHKVEGYIQDKSKKKLCALYGKWTECLYSVDPATFDAYKKNDKKNTEEKKNSKQMSTSEELDEMPVPDSESVFIIPGSVLLWRIAPRPPNSAQMYNFTSFAMVLNEVDKDMESVIPKTDCRLRPDIRAMENGEIDQASEEKKRLEEKQRAARKNRSKSEEDWKTRWFHQGPNPYNGAQDWIYSGSYWDRNYFNLPDIY
B4: Venus(N)·ORP5 (protein, UniProt Q9H0X9 1-879)
chain: MKEEAFLRRRFSLCPPSSTPQKVDPRKLTRNLLLSGDNELYPLSPGKDMEPNGPSLPRDEGPPTPSSATKVPPAEYRLCNGSDKECVSPTARVTKKETLKAQKENYRQEKKRATRQLLSALTDPSVVIMADSLKIRGTLKSWTKLWCVLKPGVLLIYKTPKVGQWVGTVLLHCCELIERPSKKDGFCFKLFHPLDQSVWAVKGPKGESVGSITQPLPSSYLIFRAASESDGRCWLDALELALRCSSLLRLGTCKPGRDGEPGTSPDASPSSLCGLPASATVHPDQDLFPLNGSSLENDAFSDKSERENPEESDTETQDHSRKTESGSDQSETPGAPVRRGTTYVEQVQEELGELGEASQVETVSEENKSLMWTLLKQLRPGMDLSRVVLPTFVLEPRSFLNKLSDYYYHADLLSRAAVEEDAYSRMKLVLRWYLSGFYKKPKGIKKPYNPILGETFRCCWFHPQTDSRTFYIAEQVSHHPPVSAFHVSNRKDGFCISGSITAKSRFYGNSLSALLDGKATLTFLNRAEDYTLTMPYAHCKGILYGTMTLELGGKVTIECAKNNFQAQLEFKLKPFFGGSTSINQISGKITSGEEVLASLSGHWDRDVFIKEEGSGSSALFWTPSGEVRRQRLRQHTVPLEEQTELESERLWQHVTRAISKGDQHRATQEKFALEEAQRQRARERQESLMPWKPQLFHLDPITQEWHYRYEDHSPWDPLKDIAQFEQDGILRTLQQEAVARQTTFLGSPGPRHERSGPDQRLRKASDQPSGHSQATESSGSTPESCPELSDEEQDGDFVPGGESPCPRCRKEARRLQALHEAILSIREAQQELHRHLSAMLSSTARAAQAPTPGLLQSPRSWFLLCVFLACQLFINHILK
B5: Venus(N)·ORP8 (protein, UniProt Q9BZF1 1-889)
chain: MEGGLADGEPDRTSLLGDSKDVLGPSTVVANSDESQLLTPGKMSQRQGKEAYPTPTKDLHQPSLSPASPHSQGFERGKEDISQNKDESSLSMSKSKSESKLYNGSEKDSSTSSKLTKKESLKVQKKNYREEKKRATKELLSTITDPSVIVMADWLKIRGTLKSWTKLWCVLKPGVLLIYKTQKNGQWVGTVLLNACEIIERPSKKDGFCFKLFHPLEQSIWAVKGPKGEAVGSITQPLPSSYLIIRATSESDGRCWMDALELALKCSSLLKRTMIREGKEHDLSVSSDSTHVTFYGLLRANNLHSGDNFQLNDSEIERQHFKDQDMYSDKSDKENDQEHDESDNEVMGKSEESDTDTSERQDDSYIEPEPVEPLKETTYTEQSHEELGEAGEASQTETVSEENKSLIWTLLKQVRPGMDLSKVVLPTFILEPRSFLDKLSDYYYHADFLSEAALEENPYFRLKKVVKWYLSGFYKKPKGLKKPYNPILGETFRCLWIHPRTNSKTFYIAEQVSHHPPISAFYVSNRKDGFCLSGSILAKSKFYGNSLSAILEGEARLTFLNRGEDYVMTMPYAHCKGILYGTMTLELGGTVNITCQKTGYSAILEFKLKPFLGSSDCVNQISGKLKLGKEVLATLEGHWDSEVFITDKKTDNSEVFWNPTPDIKQWRLIRHTVKFEEQGDFESEKLWQRVTRAINAKDQTEATQEKYVLEEAQRQAARDRKTKNEEWSCKLFELDPLTGEWHYKFADTRPWDPLNDMIQFEKDGVIQTKVKHRTPMVSVPKMKHKPTRQQKKVAKGYSSPEPDIQDSSGSEAQSVKPSTRRKKGIELGDIQSSIESIKQTQEEIKRNIMALRNHLVSSTPATDYFLQQKDYFIIFLLILLQVIINFMFK
B6: Venus(N)·ORP9L (protein, UniProt Q96SU4 1-736)
chain: MASIMEGPLSKWTNVMKGWQYRWFVLDYNAGLLSYYTSKDKMMRGSRRGCVRLRGAVIGIDDEDDSTFTITVDQKTFHFQARDADEREKWIHALEETILRHTLQLQGLDSGFVPSVQDFDKKLTEADAYLQILIEQLKLFDDKLQNCKEDEQRKKIETLKETTNSMVESIKHCIVLLQIAKDQSNAEKHADGMISTINPVDAIYQPSPLEPVISTMPSQTVLPPEPVQLCKSEQRPSSLPVGPVLATLGHHQTPTPNSTGSGHSPPSSSLTSPSHVNLSPNTVPEFSYSSSEDEFYDADEFHQSGSSPKRLIDSSGSASVLTHSSSGNSLKRPDTTESLNSSLSNGTSDADLFDSHDDRDDDAEAGSVEEHKSVIMHLLSQVRLGMDLTKVVLPTFILERRSLLEMYADFFAHPDLFVSISDQKDPKDRMVQVVKWYLSAFHAGRKGSVAKKPYNPILGEIFQCHWTLPNDTEENTELVSEGPVPWVSKNSVTFVAEQVSHHPPISAFYAECFNKKIQFNAHIWTKSKFLGMSIGVHNIGQGCVSCLDYDEHYILTFPNGYGRSILTVPWVELGGECNINCSKTGYSANIIFHTKPFYGGKKHRITAEIFSPNDKKSFCSIEGEWNGVMYAKYATGENTVFVDTKKLPIIKKKVRKLEDQNEYESRSLWKDVTFNLKIRDIDAATEAKHRLEERQRAEARERKEKEIQWETRLFHEDGECWVYDEPLLKRLGAAKH
B7: Venus(N)·ORP10 (protein, UniProt Q9BXB5 1-764)
chain: MERAVQGTDGGGGSNSSSRSSSRATSAGSSPSCSLAGRGVSSRSAAAGLGGGGSRSSPGSVAASPSGGGGRRREPALEGVLSKYTNLLQGWQNRYFVLDFEAGILQYFVNEQSKHQKPRGVLSLSGAIVSLSDEAPHMLVVYSANGEMFKLRAADAKEKQFWVTQLRACAKYHMEMNSKSAPSSRSRSLTLLPHGTPNSASPCSQRHLSVGAPGVVTITHHKSPAAARRAKSQYSGQLHEVREMMNQVEGQQKNLVHAIESLPGSGPLTALDQDLLLLKATSAATLSCLGECLNLLQQSVHQAGQPSQKPGASENILGWHGSKSHSTEQLKNGTLGSLPSASANITWAILPNSAEDEQTSQPEPEPNSGSELVLSEDEKSDNEDKEETELGVMEDQRSIILHLISQLKLGMDLTKVVLPTFILEKRSLLEMYADFMAHPDLLLAITAGATPEERVICFVEYYLTAFHEGRKGALAKKPYNPIIGETFHCSWEVPKDRVKPKRTASRSPASCHEHPMADDPSKSYKLRFVAEQVSHHPPISCFYCECEEKRLCVNTHVWTKSKFMGMSVGVSMIGEGVLRLLEHGEEYVFTLPSAYARSILTIPWVELGGKVSINCAKTGYSATVIFHTKPFYGGKVHRVTAEVKHNPTNTIVCKAHGEWNGTLEFTYNNGETKVIDTTTLPVYPKKIRPLEKQGPMESRNLWREVTRYLRLGDIDAATEQKRHLEEKQRVEERKRENLRTPWKPKYFIQEGDGWVYFNPLWKAH

Amino acid sequences for entries named in this document (tags omitted).
UniProt P60880: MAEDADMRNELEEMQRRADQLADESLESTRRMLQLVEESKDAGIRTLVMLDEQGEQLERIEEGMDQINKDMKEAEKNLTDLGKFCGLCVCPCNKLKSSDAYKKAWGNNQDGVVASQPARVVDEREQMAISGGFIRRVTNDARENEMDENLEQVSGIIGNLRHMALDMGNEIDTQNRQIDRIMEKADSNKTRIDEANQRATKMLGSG
UniProt Q9H1P3: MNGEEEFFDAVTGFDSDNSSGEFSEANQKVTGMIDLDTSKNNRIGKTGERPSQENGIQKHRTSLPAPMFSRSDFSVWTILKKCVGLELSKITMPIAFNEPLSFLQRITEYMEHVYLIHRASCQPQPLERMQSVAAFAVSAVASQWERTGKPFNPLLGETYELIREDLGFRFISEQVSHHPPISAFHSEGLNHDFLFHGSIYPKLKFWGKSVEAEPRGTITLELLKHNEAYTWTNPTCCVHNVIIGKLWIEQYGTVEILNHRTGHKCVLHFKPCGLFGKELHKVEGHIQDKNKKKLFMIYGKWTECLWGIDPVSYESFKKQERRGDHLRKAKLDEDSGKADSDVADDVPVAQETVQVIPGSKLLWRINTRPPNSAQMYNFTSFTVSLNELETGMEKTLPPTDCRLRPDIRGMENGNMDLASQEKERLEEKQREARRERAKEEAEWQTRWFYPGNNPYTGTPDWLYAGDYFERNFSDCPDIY
UniProt Q9H4L5: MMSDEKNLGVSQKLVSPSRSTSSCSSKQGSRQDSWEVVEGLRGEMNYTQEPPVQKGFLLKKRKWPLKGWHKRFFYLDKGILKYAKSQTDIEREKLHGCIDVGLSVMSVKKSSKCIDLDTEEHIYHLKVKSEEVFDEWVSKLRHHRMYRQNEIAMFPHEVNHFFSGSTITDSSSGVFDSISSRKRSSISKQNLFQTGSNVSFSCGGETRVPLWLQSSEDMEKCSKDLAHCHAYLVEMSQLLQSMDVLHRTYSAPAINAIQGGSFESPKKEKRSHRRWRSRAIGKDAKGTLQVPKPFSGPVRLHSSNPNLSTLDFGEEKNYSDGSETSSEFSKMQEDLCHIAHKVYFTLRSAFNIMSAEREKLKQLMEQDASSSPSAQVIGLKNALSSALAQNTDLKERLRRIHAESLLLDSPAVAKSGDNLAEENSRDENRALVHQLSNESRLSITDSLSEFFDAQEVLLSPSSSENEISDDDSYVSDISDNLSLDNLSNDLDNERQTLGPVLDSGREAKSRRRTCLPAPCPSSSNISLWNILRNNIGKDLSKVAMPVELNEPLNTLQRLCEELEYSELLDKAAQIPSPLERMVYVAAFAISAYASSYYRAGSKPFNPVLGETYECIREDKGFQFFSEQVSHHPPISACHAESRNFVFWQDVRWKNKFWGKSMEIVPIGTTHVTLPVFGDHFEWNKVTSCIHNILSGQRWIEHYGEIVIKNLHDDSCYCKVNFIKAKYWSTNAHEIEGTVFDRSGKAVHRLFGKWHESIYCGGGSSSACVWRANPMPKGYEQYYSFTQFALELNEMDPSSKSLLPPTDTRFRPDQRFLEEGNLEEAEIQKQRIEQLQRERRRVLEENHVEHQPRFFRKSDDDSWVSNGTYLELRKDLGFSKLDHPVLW

Target: Venus(C)·SNAP-25 (UniProt P60880)
Test: split reporter; BiFC of Venus(N) and Venus(C) fusions in transfected HEK293 cells, fixed after 24 h; co-transfection marker mCherry or mCherry·ORP

Molecule	binding
Venus(N)·ORP2 (from UniProt Q9H1P3 1-480)	binds
Venus(N)·ORP3 (from UniProt Q9H4L5 1-887)	no binding
B1	binds
B2	binds
B3	binds
B4	binds
B5	binds
B6	binds
B7	binds
